Reference: publication PMC6148051, “p53 cooperates with SIRT6 to regulate cardiolipin de novo biosynthesis” (Cell Death & Disease, 2018)

Molecular target: T1, His-SIRT6 (UniProt Q8N6T7)
T1 construct: Sirtuin 6 (SIRT6); source: bacteria, purified (Ni(II)-Sepharose)
Assay: pull-down; GST or GST fusion proteins on glutathione-Sepharose 4B beads incubated with purified His-tagged proteins in TEN buffer (10 mM Tris-HCl, pH 8.0, 1 mM EDTA, 100 mM NaCl), 4 h, 4 °C; blot with anti-His or anti-GST, Coomassie staining
Conditions: both partners purified

B1: GST-p53 DNA-binding core domain, […] aa (domain or fragment)
chain: not shown
notes: also called p53 […] aa fragment; source: bacteria, purified (glutathione-Sepharose 4B)
B1: binds.

B2: GST-p53 regulatory domain, […] aa (domain or fragment)
chain: not shown
notes: tumor suppressor p53, regulatory domain, […] of the 393 aa protein; also called p53 […] fragment; source: bacteria, purified (glutathione-Sepharose 4B)
B2: binds.
